# The supplement of paper PMC7826260
# The other results are listed elsewhere or left out. Each Rep nickase domain was tested in vitro on the same pool of single strands for 1 h at 37 °C with 3 µM enzyme; only the middle of the 90-letter strands is printed. A value is the log2 ratio of uncut reads to the pool without enzyme; strong cutting gives strongly negative numbers. There is no active / inactive call. Because reads are shares of a total, they shift together; where an enzyme cuts many sequences, the uncut ones exceed 0.
# What was measured:
# Assay in all cases: uncleaved DNA left, log2 of reads against the no-enzyme library (log2 ratio); higher = less cleavage (more negative = more Rep cleavage of the k-mer); sequences stand for … in CTCGTCCG…ACCGGAGA
# [1] = test system: T1, Rep nickase domain of Muscovy duck circovirus
# T1 sequence (protein, residues 1-111, tag omitted): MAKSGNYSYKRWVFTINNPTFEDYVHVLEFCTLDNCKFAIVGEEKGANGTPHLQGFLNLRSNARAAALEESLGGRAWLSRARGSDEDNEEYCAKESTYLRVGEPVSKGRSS
# Procedure: (§1)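 A pool of 90-nt single-stranded DNAs with seven random bases just before the constant AC of the nick site (name = the seven bases) was cut by 3 µM recombinant His6-SUMO-tagged Rep nickase domain (300 nM DNA, 50 mM HEPES pH 8.0, 50 mM NaCl, 1 mM MnCl2, 1 h, 37 °C, three replicates). Uncut DNA was amplified and sequenced.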
# [2] = test system: T2, Rep nickase domain of banana bunchy top virus
# T2 sequence (protein, residues 1-94, tag omitted): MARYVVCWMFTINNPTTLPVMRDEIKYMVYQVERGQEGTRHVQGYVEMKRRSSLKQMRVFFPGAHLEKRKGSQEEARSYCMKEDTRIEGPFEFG
# Procedure: as §1
# [3] = test system: T3, Rep nickase domain of cabbage leaf curl virus
# T3 sequence (protein, residues 1-116, tag omitted): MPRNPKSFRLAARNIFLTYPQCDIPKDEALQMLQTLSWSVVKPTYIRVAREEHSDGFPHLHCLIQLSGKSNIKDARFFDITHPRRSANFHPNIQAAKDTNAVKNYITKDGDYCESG
# Procedure: as §1
# [4] = test system: T4, Rep nickase domain of chickpea chlorotic dwarf virus
# T4 sequence (protein, residues 1-124, tag omitted): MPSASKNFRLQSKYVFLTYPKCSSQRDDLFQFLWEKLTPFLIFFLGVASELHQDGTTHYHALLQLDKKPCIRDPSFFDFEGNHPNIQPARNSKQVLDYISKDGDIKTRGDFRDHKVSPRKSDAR
# Procedure: as §1
# [5] = test system: T5, Rep nickase domain of faba bean necrotic yellows virus
# T5 sequence (protein, residues 1-98, tag omitted): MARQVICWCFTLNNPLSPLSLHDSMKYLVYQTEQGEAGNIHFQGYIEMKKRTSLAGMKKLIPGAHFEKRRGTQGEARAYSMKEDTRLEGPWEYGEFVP
# Procedure: as §1
# [6] = test system: T6, Rep nickase domain of maize striate mosaic virus
# T6 sequence (protein, residues 1-117, tag omitted): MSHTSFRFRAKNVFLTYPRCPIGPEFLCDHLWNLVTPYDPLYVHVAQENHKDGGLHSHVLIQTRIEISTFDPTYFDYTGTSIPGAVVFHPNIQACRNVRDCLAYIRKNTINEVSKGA
# Procedure: as §1
# [7] = test system: T7, Rep nickase domain of porcine circovirus 2
# T7 sequence (protein, residues 2-116, tag omitted): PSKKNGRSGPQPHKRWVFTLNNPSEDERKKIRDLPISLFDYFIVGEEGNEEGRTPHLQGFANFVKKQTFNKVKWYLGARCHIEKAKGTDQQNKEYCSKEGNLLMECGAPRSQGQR
# Procedure: as §1
# [8] = test system: T8, Rep nickase domain of tomato golden mosaic virus
# T8 sequence (protein, residues 1-124, tag omitted): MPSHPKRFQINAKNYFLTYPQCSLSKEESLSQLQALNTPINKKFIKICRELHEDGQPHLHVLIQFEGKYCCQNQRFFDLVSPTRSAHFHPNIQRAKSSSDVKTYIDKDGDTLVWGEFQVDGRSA
# Procedure: as §1
# [9] = test system: T9, Rep nickase domain of tomato yellow leaf curl virus
# T9 sequence (protein, residues 1-136, tag omitted): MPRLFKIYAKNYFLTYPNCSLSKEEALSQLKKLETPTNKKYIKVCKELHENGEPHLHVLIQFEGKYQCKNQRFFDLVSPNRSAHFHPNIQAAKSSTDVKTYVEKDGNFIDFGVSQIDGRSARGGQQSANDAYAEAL
# Procedure: as §1
# [10] = test system: T10, Rep nickase domain of wheat dwarf virus
# T10 sequence (protein, residues 1-137, tag omitted): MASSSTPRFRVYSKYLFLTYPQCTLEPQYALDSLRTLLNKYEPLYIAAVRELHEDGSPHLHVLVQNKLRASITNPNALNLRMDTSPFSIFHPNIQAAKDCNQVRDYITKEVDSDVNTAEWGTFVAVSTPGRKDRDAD
# Procedure: as §1
Sequence,uncleaved DNA left (log2) [1],uncleaved DNA left (log2) [2],uncleaved DNA left (log2) [3],uncleaved DNA left (log2) [4],uncleaved DNA left (log2) [5],uncleaved DNA left (log2) [6],uncleaved DNA left (log2) [7],uncleaved DNA left (log2) [8],uncleaved DNA left (log2) [9],uncleaved DNA left (log2) [10]
GGAGATG,-0.00288,0.00813,0.352,1.25,0.0656,1.66,0.119,-0.0152,-0.058,-0.0844
ATTAGGA,0.015,-0.0682,0.12,0.425,-0.0175,-0.249,0.0838,0.00923,-0.151,-0.0685
CTTCCGA,0.0236,0.04,0.0975,0.138,0.0253,-0.529,0.295,-0.0844,0.00424,0.166
AGGTTCT,-0.388,0.0762,0.0693,-0.849,0.0177,0.462,-2.92,-0.00958,0.127,0.201
ATCTAGG,0.0824,0.0435,0.394,1.16,0.0309,0.99,0.107,0.0381,0.0176,0.0628
AATTCAC,-0.104,0.0153,-0.0705,-0.461,0.00391,-0.945,-0.36,-0.0232,0.0673,0.122
ACATGAT,-0.368,0.0217,-0.231,-0.434,0.0377,-0.384,-1.26,0.0556,-0.0126,-0.00453
CCCATTA,-0.0964,-0.0257,-0.141,-1.26,-0.0499,-1.02,-0.00869,-0.00494,-0.0901,-0.114
AAGCATA,0.0188,0.00629,-0.172,-1.4,0.0468,-0.0393,-0.689,0.0311,-0.139,0.107
AGAACCA,0.0453,0.0977,0.494,0.841,0.12,1.78,0.0857,0.0373,0.0358,0.0791
ATTAACC,-0.128,-0.0622,-0.405,-1.52,-0.00361,-0.788,-0.571,-0.0268,-0.0937,-0.0893
CGATTCC,-0.257,-0.171,-0.0493,-0.0214,-0.0479,-0.56,-0.551,-0.221,-0.0622,-0.0428
AGCTAGT,-0.286,-0.00316,-0.101,0.581,0.041,0.544,-3.37,0.118,0.000997,0.035
ACGCGGT,-0.0876,-0.0827,-0.542,-0.531,-0.115,-0.75,-0.0794,0.00485,-0.0618,-0.12
TTCAGAA,0.151,0.105,0.386,0.131,0.149,-0.013,0.174,0.198,0.0518,0.127
AAACCTA,0.048,0.0895,-0.116,-2.46,0.0341,-0.571,-0.615,-0.00257,0.053,0.0197
GTCGAGC,0.125,0.116,0.504,0.999,0.129,1.2,0.255,0.167,0.205,0.193
TCGTCGC,-0.111,-0.0227,-0.644,-0.512,-0.0657,-1.03,-0.00807,-0.306,-0.122,-0.138
GTTTATC,-0.0415,0.0459,0.34,0.903,-0.0777,1.57,0.0419,0.0199,0.0688,0.0826
TTGGGTT,0.0974,-0.18,0.0557,-0.08,-0.0209,0.504,-0.0811,-0.158,-0.117,-0.129
GGATTTG,-0.0452,-0.072,0.0383,0.374,-0.03,0.0384,0.127,-0.0102,-0.0118,0.00829
CCCGACA,-0.197,-0.236,-0.199,-0.978,-0.248,-0.634,-0.385,-0.341,-0.285,-0.311
TTATATA,-0.222,0.0191,0.129,-1.23,0.048,0.0543,-0.25,0.0109,0.0602,0.105
TCATAAG,0.021,0.0279,-0.69,-0.116,0.109,-1.04,0.213,0.0458,0.0472,-0.0735
TAAAGAC,-0.0522,-0.0197,-0.0358,-0.502,-0.038,-0.104,0.163,-0.0541,-0.0292,-0.0616
GCATCAC,0.0418,0.143,0.00762,0.179,-0.0697,-0.249,0.208,0.0561,0.0432,0.104
GGATGAG,0.0164,-0.0503,-0.266,0.233,0.0293,-0.302,0.182,0.0621,0.0978,-0.000923
TTGTACG,-0.034,-0.0413,-0.881,-0.767,-0.115,-1.34,0.226,-0.172,0.0154,-0.154
ACTGAAA,-0.109,-0.0764,-0.135,0.601,-0.0549,0.202,-0.103,-0.0535,-0.188,0.0918
AACCGGG,0.0544,0.033,0.354,0.527,0.0595,0.256,0.17,0.0796,0.0891,0.146
